# Over roughly 81,000 sequences, “one-hybrid fitness for binding NBS DNA” has its median near -0.1; the highest 2% begin near 0.36. Some of the results follow.
# B1: Caulobacter ParB omega fusion; a variant is named by its letters at X, in order, B8GW30 (parent)
# chain: MESVVVGEPGMSEGRRGLGRGLSALLGEVDAAPAQAPGEQLGGSREAPIEILQRNPDQPRRTFREEDLEDLSNSIREKGVLQPILVRPSPDTAGEYQIVAGERAWRAAQRAGLKTVPIMVRELDDLAVLEIGIIENVQRADLNVLEEALSYKVLMEKFERTQENIAQTIGKSXSHVANXMRLLXLPDEVQSYLVSGELTAXHARAIAAAADPVALAKQIIEGGLSVRETEALARKAPNLSAGKSKGGRPPRVKDTDTQALESDLSSVLGLDVSIDHRGSTGTLTITYATLEQLDDLCNRLTRGI
# Variants of: B1
# Experiment: one-hybrid fitness for binding NBS DNA (the Noc-binding site; scaled: cognate 1, non-cognate 0); higher = stronger binding
# Settings: with NBS DNA site
# Procedure, shortened: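 Pre- and post-selection plasmids were Illumina-sequenced, three replicate libraries were pooled, and any variant with under 10 reads was removed. The libraries were Caulobacter ParB with four specificity codons randomised, selected in E. coli USO through a HIS3 reporter whose site is 19 bp from the promoter. Cells grew 48 hours at 37°C on M9 without histidine, with 0.1 mM IPTG and 5 mM 3-AT. Fitness is the log change in variant-to-wild-type read ratio, rescaled against cognate and non-cognate.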
row,Variant,one-hybrid fitness for binding NBS DNA
1,RYRT,0.664
2,AMFD,≤ 0.2
3,QTGV,0.261
4,FIKT,≤ 0.2
5,YGDG,≤ 0.2
6,CFKT,≤ 0.2
7,YCLE,0.263
8,KAQH,≤ 0.2
9,AVVR,≤ 0.2
10,TRQL,≤ 0.2
11,ACPG,≤ 0.2
12,PNRE,≤ 0.2
13,YHLM,≤ 0.2
14,YWRE,≤ 0.2
15,LAGR,≤ 0.2
16,EVVI,≤ 0.2
17,QCIT,0.432
18,CILR,≤ 0.2
19,HCVV,≤ 0.2
20,PHQR,≤ 0.2
21,EANR,≤ 0.2

row,Variant,one-hybrid fitness for binding NBS DNA
1,ATGI,≤ 0.2
2,HERT,≤ 0.2
3,MWPC,≤ 0.2
4,AYFW,≤ 0.2
5,HHKG,≤ 0.2
6,SSQR,≤ 0.2
7,FVIS,≤ 0.2
8,YRVA,≤ 0.2
9,VVNL,≤ 0.2
10,DPAR,≤ 0.2
11,TPPS,≤ 0.2
12,TFRF,≤ 0.2
13,DRNN,≤ 0.2
14,YMMS,≤ 0.2
15,IYQR,≤ 0.2
16,KVLM,≤ 0.2
17,PGTD,≤ 0.2
18,VCLC,≤ 0.2
19,QMGN,≤ 0.2
20,AQKR,0.243
21,SCST,≤ 0.2

row,Variant,one-hybrid fitness for binding NBS DNA
1,LEPN,≤ 0.2
2,DLGG,≤ 0.2
3,WKFC,≤ 0.2
4,TVNV,≤ 0.2
5,KRHN,≤ 0.2
6,NDSA,≤ 0.2
7,GWVA,≤ 0.2
8,HHPH,≤ 0.2
9,VWQR,≤ 0.2
10,QLRK,0.336
11,FCLS,≤ 0.2
12,KSEV,≤ 0.2
13,IGSR,≤ 0.2
14,CAHS,≤ 0.2
15,HHHL,≤ 0.2
16,CRKN,≤ 0.2
17,MNLM,≤ 0.2
18,NDDR,≤ 0.2
19,KSGC,≤ 0.2
20,GAMM,≤ 0.2
21,NCLG,≤ 0.2

row,Variant,one-hybrid fitness for binding NBS DNA
1,NQCC,≤ 0.2
2,NWYC,≤ 0.2
3,INHR,≤ 0.2
4,TARA,≤ 0.2
5,YPVI,≤ 0.2
6,IIHY,≤ 0.2
7,TRVM,≤ 0.2
8,PNRR,≤ 0.2
9,DAGR,≤ 0.2
10,GNKN,≤ 0.2
11,FRKP,≤ 0.2
12,LQVT,≤ 0.2
13,QLPG,≤ 0.2
14,QTMW,≤ 0.2
15,HTRG,≤ 0.2
16,DADC,≤ 0.2
17,AHAA,≤ 0.2
18,SHEC,≤ 0.2
19,TYFC,≤ 0.2
20,ESDS,≤ 0.2
21,PTCR,≤ 0.2

# From a collection of fitness landscapes (doi:10.1016/j.celrep.2020.107928)
